Results taken from the supplement of paper PMC11417369.
Some of the results follow.

The sequences below were run on PfSIP2 AP2 domain 1 (GST-tagged) (assay: gcPBM binding intensity (ln(normalized median fluorescence intensity)); higher = stronger DNA binding).
Outline: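 Binding of GST-tagged P. falciparum DNA-binding domains, expressed in E. coli and used at about 25 μg on average, was carried out for 1 h in 1× PBS containing 1% milk, 0.2 mg/ml BSA, 0.5% salmon testes DNA and 0.03% Triton X-100. The target was an Agilent 4 × 180k array of primer-extended double-stranded 36-bp intergenic genomic probes plus negative controls, read with Alexa488 anti-GST antibody at 488 nm. Binding intensity is the highest Masliner-normalised natural-log median intensity across replicate spots of either probe orientation.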

Row | Sequence | gcPBM binding intensity (ln)
1 | ATATGGGTAATGAATTGTACTCTTTCTTGTTGTTCT [XGTACX_site4487] | 6.94
2 | TGTAATAAATAGTACACACACACATATTTATATATC [CACACA_site6770] | 7.24
3 | GTATAATTTTCGTATTCACACAAGAATATACTACAT [CACACA_site4877] | 7.38
4 | GTATATTTATAGCCTTTATTATATTTAATATTATTA [TGCATGCA_negctrl_site26] | 7.01
5 | AGAAAAGTTTAATACAGTACATAAACAAAGTATAGG [XGTACX_site2386] | 7.04
6 | TATAATATTATATATAAACACACATACACATGTAAA [CACACA_site8631] | 7.04
7 | GTTATATTTTTTTATACACACTGGAATATATAAATA [CACACA_site4282] | 7.18
8 | ATAATTATATATTTATGTACGCATAAATATTTATAT [XGTACX_site5765] | 7.79
9 | ACCCAATTTTAAAATGAACACACATGTTTTTCTTAC [CACACA_site8246] | 7.04
10 | TATTTATTGTGATACTACTATTATTTTATGATTAAA [CACACA_negctrl_site284] | 6.93
11 | TTATATTATTTTTAATGTACTTTTTATGAATACAAA [XGTACX_site689] | 7.12
12 | TATATATAACTTTATTGTACAAAATATTATGTATTC [XGTACX_site981] | 7.03
13 | TTGTTTTATTATTCGATGCACTACAGAAATATATTC | 8.81
14 | TATACAACTTTATGAAGTACAAAAAGTTCTATATAT [XGTACX_site3866] | 6.99
15 | AACTATATCATTTATTTTATTTTTTAAATACATTTA [CACACA_negctrl_site183] | 6.91
16 | TAAGTATACTCATACACACACACACTAGAAAAAAAA [CACACA_site4397] | 7.08
17 | AGAGATACATAAAAAAGTACATATAAAATTTAGGAA [XGTACX_site7201] | 6.89
18 | TATTTATTTATATACACACACTTGTATAAAAAATGT [CACACA_site7048] | 7.04
19 | ATAATATGAAACTAAGGTACACATATATTAACAGAG [XGTACX_site3842] | 7.46
20 | TACAAATTAATATGTACACACAAATATATATATATA [CACACA_site1977] | 9.27
21 | TGCGACCATAATAAAGCACACAATGAAAAATATATA [CACACA_site256] | 6.96
22 | TGTGCTCAAAATTATGCACACACCTAAAATTAATTT [CACACA_site8950] | 7.77

Row | Sequence | gcPBM binding intensity (ln)
23 | TATACATATTTTATAGCACACAAATAATAATATGTA [CACACA_site8129] | 6.93
24 | CCAACTATATTATGAAGTACATATATATTATATATA [XGTACX_site5767] | 7.19
25 | AAACCTACATAACATACACACGCATATATATAATTT [CACACA_site8923] | 7.24
26 | TTTTTTTTTTTTTATTGTACATGCAAAAAATTCCAC [XGTACX_site2371] | 7.55
27 | TTGGGTATTTTGTGCGCACACACATGCAAAAAGAAA [CACACA_site8299] | 9.26
28 | GTAAGTATATATAAATGTACTTATGAGGTCAAATTA [XGTACX_site3392] | 7.05
29 | ATATATATATATTGTAGTACTTATTAAATTATTTAT [XGTACX_site6235] | 8.84
30 | TCTGTATTTCCTTATGCATGCATTAGCAAGATAATA [TGCATGCA_site483] | 7.3
31 | ATATATAATCATATGTGTACATATATATTAATTTAA [XGTACX_site2839] | 7.07
32 | AATTCAAAATAAAAATGTACATATATCAGAATATGG [XGTACX_site42] | 6.98
33 | ACTTGTAAGAAACACACACACACACCGATATATATA [CACACA_site4594] | 7.38
34 | ATTATTTTTTTTCTTATACACACCATGCATCAAACT [CACACA_site2128] | 7.37
35 | AAAAATAAGAAAAAGTGTACTTTATTATGTATATAT [XGTACX_site2305] | 7.11
36 | AAAAAAAAAAAAAAAACACACATTTAATGAACTTAT [CACACA_site1276] | 7.58
37 | ATGAGAAAATATATTATTTTATATGAACAAGTTTAT [XGTACX_negctrl_site372] | 6.88
38 | AATAATGTATGAAATAAACACACAAGTAAGTACATA [CACACA_site8776] | 7.13
39 | ATAATTTTAAATAAATGTACATATAGATGTGTGTAA [XGTACX_site3958] | 7.62
40 | AAATGTTATATATAATGTACTTGTAAGAACGTTCCT [XGTACX_site2840] | 6.91
41 | AAAATTATATATTATAGTACATAAAATATTGATAAA [XGTACX_site8988] | 6.9
42 | AAGATACACTTAATCGCACACGAAATTATATATTTA [CACACA_site3063] | 6.92
43 | TTTTTTTTTTATGTTATTAAAAAAAAAAAAAATTAA [CACACA_negctrl_site222] | 6.79
44 | TATAACATTGTATGAATGCACTTTTATCTATTTTAA [GTGCAC_site9903] | 7.76

Row | Sequence | gcPBM binding intensity (ln)
45 | ATATATATATATATATGTACATATGTATGTGTTTGT [XGTACX_site397] | 9.33
46 | TATACTCATTTTTATACACACTTGTTTTATAAAACG [CACACA_site4561] | 7.09
47 | AAATTTATTATGAACATACACACAAAAAAAAAAAGT [CACACA_site2053] | 7.59
48 | CTATATGTATAAAGTTGTACAGTTTTTCAAAGTTAA [XGTACX_site6652] | 7.07
49 | TATATATTTTATTATTGTACGAATTATTTATTTTAC [XGTACX_site8105] | 6.92
50 | TACATCATCTATAAGGTGCATTTTAGTTCTATTAAA | 10.8
51 | TTTTTTCTAATATCTTTGCCTTTTTCTTTATTTATT [CACACA_negctrl_site1053] | 6.6
52 | TATTGAAACCCACACGAACACACGTATTTCATAAAC [CACACA_site251] | 6.95
53 | TATAAAAAGCATAACACACACATGTCAATATAAATA [CACACA_site6648] | 6.91
54 | ATGGACATTTTATAAATCACAATGGATATTTTATAA [CACACA_negctrl_site1830] | 6.83
55 | TTTTTTTTTTTTTTGTGTACATATAATGCACATTAT [XGTACX_site6505] | 8.07
56 | TACTTTTATATAGAAAGTACATACAATTCATAGAAT [XGTACX_site2182] | 6.98
57 | ATAATTATATATATATGTACATATTATATATATATA [XGTACX_site4526] | 8.55
58 | CATAAATACATACATACACACATATTTATATTTATA [CACACA_site7071] | 7.15
59 | ATATACATATATATATGTACTGAAAAGAAAAGAATT [XGTACX_site150] | 7.08
60 | TGTTTTTAAATTTAAATCAAAAAATAAAATAAAATA [GTGCAC_negctrl_site355] | 7.02
61 | AAGATAACAAGTAATCAATCTAATTATTAATTATAT [CACACA_negctrl_site1713] | 6.71
62 | AAAAGAAAAATGTCATATGATATCATATATTTTATA [GTGCAC_negctrl_site185] | 6.9
63 | AAAAATATGTGATAATGTACTTTTCATTTTTATTTT [XGTACX_site8544] | 6.76
64 | AATATAATATAATGCACACATAAACAAAAAAAAAAT [CACACA_site1304] | 7.53
65 | TTCATTTGAAAACTGTGTACTTAAAAATATACATAT [XGTACX_site176] | 7.04
66 | ATATATTTAAATAAATGTACAAATCATAAATTCAAG [XGTACX_site1417] | 6.98

Row | Sequence | gcPBM binding intensity (ln)
67 | TACATATATATAAATACACACACACCCACCTTATAA [CACACA_site9346] | 7.16
68 | TTTTTATTTTATAATATATTCCTTTTCCTTTCTTTC [CACACA_negctrl_site245] | 6.64
69 | TTATTAGAAAAATGCACACCAAAAAAAAAAAAAAAA [CACACA_site2522] | 7.47
70 | ATACATATACACATATGTACATATGAAAAGAAAAAT [XGTACX_site6445] | 7.35
71 | TATATATATTGTGTATGTACATATATATAAATATTG [XGTACX_site433] | 7.68
72 | GAAAAGAAAAATAAACGTACATAAATATTAACATTA [XGTACX_site8213] | 6.73
73 | CAAATAAAAATAAGGAGTACAATTAAAAAAGGAAGG [XGTACX_site4366] | 7.95
74 | AAAATAAAAAAGTGTACACATATTAAAATGTATTTA [CACACA_site4424] | 6.92
75 | TAAAATTATATAAAGGAACACACATTTTATTTTATT [CACACA_site8423] | 6.82
76 | AATATATTTTAATATACACACATATCTGCTCTTTAA [CACACA_site6130] | 6.76
77 | TCATTGTTAAGCTGAAGTACTTATAATTACATCGAG [XGTACX_site6340] | 7.04
78 | TATTAGCATGTTATTACACACAATATAAAATATATA [CACACA_site1401] | 7.02
79 | TGTCAATCATATAAATGTACATTTTAAATGAGGTGT [XGTACX_site7391] | 7.36
80 | AATTAAATTACTTATACACACATAAAATGTCTGTAT [CACACA_site997] | 6.98
81 | AAATTATGAACATATTGTACATATATATATATATAT [XGTACX_site8269] | 9.36
82 | CATGTATGTACCATGGTGCAACAATATTTTTAACAA [GTGCAC_site9597] | 10.6
83 | ATTATATAAATTATATGTACGTATTTTTTTTTTTTT [XGTACX_site1908] | 7.19
84 | TTTATTTCTATATTTACATGCAAAGGGTTAGTTATA [TGCATGCA_site983] | 7.11
85 | GATCTTTTTTTTCTTACTTTACAATTTTTTTTTTAC [XGTACX_negctrl_site101] | 7.15
86 | TTTTTTTTTTTCATGTGTACATATATTTTCACTTTA [XGTACX_site4475] | 7.1
87 | AAGAAAAAGAATAGACGGACAACTAATATAAAATAT [XGTACX_site7905] | 6.98
88 | GTTTTACACAGACATGCATGTGAAAATTTGATGGTA [TGCATGCA_site308] | 6.96
